This is one part of the list. Repeats are few or missing, and single values can be far off.

This is an account of results in the supplement of paper PMC10986608.

The assay deals with Candida albicans DPL-15. Put plainly: growth (OD600) after compound treatment (apparently relative to screen median) (relative growth (fraction; screen median 1.02)); DPL-15 is a caspofungin-resistant clinical isolate; higher = more fungal growth (less antifungal activity). Conditions: 25 µM; RPMI 1640; 48 h; 30 °C.
For `C=CCNC1=NC(CCc2ccccc2)C(C(=O)OC)=C(C)N1C` (stereo not given), the growth turned out to be 0.802.
To `C=CCC1=C(OC)[C@]2(CC=C)CC(=C)C[C@](C(=O)C(C)C)(C1=O)C2=O` belongs 1.16; to `CC1=C(C(N)=O)C(c2cccs2)NC(=O)N1` (stereo not given), 0.969.
Then `CC(C)CC(CCc1ccccc1)OS(=O)(=O)NC(C)(C)C` (stereo not given), with 0.821; and `CC#CCN1C(=O)NC(c2ccccc2)C(C(=O)OC)=C1C` (stereo not given), with 0.949.
For `COc1cccc(CO[C@H]2CC=C(c3ccc(Br)cc3)O[C@@H]2CO)c1`, the growth was 0.873.
To `CNC(=O)[C@@H]1C[C@@]2(c3c(C=O)[nH]c4ccccc34)c3ccccc3N(C(=O)OCc3ccccc3)[C@H]2N1C(=O)OC(C)(C)C` belongs 0.888.
Then `O=Cc1c(O)c(C=O)c(O)c(C(c2ccccc2)N2CCOCC2)c1O` (stereo not given), with 0.907; and `CC1=C[C@H]2[C@@H]3CO[C@@]2(C)[C@@](C)(C3)C1=O`, with 0.981; and `CC1=NCCNC2=C1C(c1ccc(C)cc1)NC2=O` (stereo not given), with 1.07.
Take `COc1cc(OC)c(OC)cc1/C=C/C(C)=O`: the growth stood at 0.977.
`Cc1nn(C)c2c1C(c1ccc(F)cc1)NC2=O` (stereo not given): the growth is 1.07.
With `COc1ccccc1C#C[C@@H]1C=C[C@@H](OC(C)=O)[C@@H](COC(C)=O)O1`, the growth was determined as 0.89.
As for `C=CCN1C(=O)C2=C(C(C)=NCC(C)(C)N2)C1c1cccc(C(F)(F)F)c1` (stereo not given), the growth came out at 0.938.
As for `COc1ccc(I)c2oc(C(=O)O)cc(=O)c12`, the growth is 1.08.
Then `O[C@@H](c1ccccc1I)c1cc2c3c(ccc4c3c1OCO4)OCO2`, with 1.07; and `CC(C)Oc1cc2c(cc1C1(c3cc4c(cc3OC(C)C)OCO4)C(=O)Nc3cc(F)ccc31)OCO2`, with 0.932; and `COC(=O)C1=C(CCl)NC(=O)NC1c1cccc(C#N)c1` (stereo not given), with 1.07.
To `Cc1cc2c(c(=O)o1)[C@@]1(C(=O)N(C)c3cccc(Br)c31)C1=C(CCCC1=O)O2` belongs 0.976; to `CCc1ccccc1-n1nc(C)c2c1C(=O)NC2c1ccc(C)cc1` (stereo not given), 1.07; to `CC(C)Cc1n[nH]c2c1C(c1ccc(F)cc1)N(Cc1ccc(C(F)(F)F)cn1)C2=O` (stereo not given), 1.03.
To `C=C1CC[C@H]2[C@@H]3C4=C(O[C@]3(C(C)C)O[C@]2(C)CC[C@@H]2[C@@H]1CC2(C)C)C(C)(C)C(=O)C(C)(C)C4=O` belongs 0.92; to `C=C(C)C[C@@]1(c2ccccc2)Oc2ccccc2C2=NCCN=C21`, 0.97; to `COc1ccc(C2=C(C(=O)NCCN3CCOCC3)C3C(N2)C(=O)C[C@@H](c2ccccc2)[C@@H]3C)cc1` (stereo not given in full), 1.
As for `COc1cc(O)c(C(=O)COCc2ccccc2)c(OC)c1`, the growth turned out to be 0.912.
Then `CC(C)CCOS(=O)(=O)NCC(F)(F)F`, with 1.12.
As to `COC(=O)C/C=C/[C@@H](C)[C@H](NC(=O)[C@@H](N)C(C)C)c1ccccc1`, the growth stood at 1.03.
Regarding `CCN(CC)C(=O)c1c(O)cc(O)cc1CC(=O)c1ccccc1`, the growth is 1.03.
Consider `O=C1CC2(CCCCC2)CNC(=O)c2cccc(c2)-c2[nH]ncc2COC[C@H](c2ccccc2)N1`, for which the growth turned out to be 1.04.
With `COC(=O)C1=C(C)N(Cc2cccc(C(F)(F)F)c2)C(NCCc2cccs2)=NC1c1ccc(Cl)cc1` (stereo not given), the growth came out at 1.01.
To `C[C@@H]1/C=C/CC(=O)OCCCC(=O)N[C@@H](Cc2ccc(O)cc2)C(=O)N[C@@H]1/C=C/c1ccccc1` belongs 0.718; to `Cc1cc(C)cc(-n2nc(C)c3c2C(=O)NC3c2ccc3c(c2)OCO3)c1` (stereo not given), 0.963.
Then `CC(C)C1=NCCNC2=C1C(c1ccc(F)cc1)NC2=O` (stereo not given), with 0.994.
On to `CC(=O)C1=C(C)N(Cc2ccc(Cl)cc2)C(=S)NC1c1ccccc1Cl` (stereo not given), for which the growth worked out at 0.829.
Regarding `C=Cc1cc(O[Si](C)(C)C(C)(C)C)ccc1[C@@H]1CCC2(OCCO2)[C@H]1O`, the growth came out at 0.866.
To `CC#CCOc1c(-c2ccccc2)oc2cccc(OC)c2c1=O` belongs 0.82; to `CCOC(=O)C(c1ccc(OC)c(OC)c1)C1c2ccccc2C=C(C)N1C(=O)OC` (stereo not given), 0.947; to `COc1ccc([C@@H]2[C@@H](C(=O)NC3CCCC3)[C@@H](C(=O)NC3CCCC3)[C@@H]2c2ccc(OC)c(OC)c2)cc1OC`, 0.891.
As to `CCCCC1=CC2=C(OC(C)=O)C(=O)C(C)(OC(=O)C3CCCC3)C(=O)C2=CO1` (stereo not given), the growth turned out to be 1.12.
Take `Cc1cc(O)c2c3c4c(cc(O)c13)O[C@@]1(CCCO1)[C@H](/C=C/CCOC(=O)c1ccccc1)[C@H]4OC2=O`: the growth was 1.
To `COCCN1C(NCc2ccc(C(F)(F)F)cc2)=NC(c2ccccc2)C(C(=O)OC)=C1C` (stereo not given) belongs 1.17; to `CO[C@H]1CCN(C(=O)c2c(O)cc(O)cc2Nc2cnn(C(C)C)c2)C1`, 1.13.
`COc1ccc(N2C(=O)c3[nH]nc(CC(C)C)c3C2c2ccccc2OC)cc1` (stereo not given): the growth amounted to 0.984.
Then `COC(=O)C1=C(C)N(C)C(NCC2CC2)=NC1c1ccc(Cl)cc1` (stereo not given), with 0.769.
Then `C=CCN1C(=O)C2=C(C(c3ccccc3)=NCCN2)C1c1ccc2c(c1)OCO2` (stereo not given), with 0.977; and `C=CCC1=C(O)[C@](CC=C)(C[C@H](CC=C)C(=C)C)C(=O)C(C(=O)c2ccccc2)=C1O`, with 1.69; and `COC(=O)[C@H]1[C@@H](O)[C@@]2(O)c3c(OC)cc(O)cc3O[C@@]2(c2ccc(Br)cc2)[C@@H]1c1ccccc1`, with 1.11.
Then `COC(=O)[C@@H]1[C@@H](c2ccccc2)[C@]2(c3ccc(OC)cc3)Oc3cc(OC)cc(OC)c3[C@@]23NC(CCl)=N[C@@]13O`, with 1.09; and `CC1(C)[C@H]2CC[C@]1(C)[C@H](OS(=O)(=O)NCC(F)(F)F)C2`, with 1.37; and `CC1=NCCN(C)C2=C1C(c1ccc(Br)cc1)N(c1ccccc1)C2=O` (stereo not given), with 0.95.
Take `NCC1CCCN(CCc2ccccc2)C1` (stereo not given): the growth came out at 1.07.
To `COC(=O)c1cc2c(c3c4ccccc4n(S(=O)(=O)c4ccc(OC)cc4)c13)C(=O)N(Cc1ccc(C)cc1)C2` belongs 0.959; to `CC(=O)C1=C2C=CCCN2C(=O)NC1c1ccc(OC(F)(F)F)c(F)c1` (stereo not given), 0.786; to `CC(C)C1=NCCNC2=C1C(c1ccccc1)N(c1ccccc1)C2=O` (stereo not given), 1.03.
For the molecule `C=CCN1C(=O)C2=C(C(c3ccccc3)=NCCN2C)C1c1ccccc1` (stereo not given), the growth was 0.959.
Then `C=CCN1C(=O)C2=C(C(C)=NCCN2)C1c1ccc(C)cc1` (stereo not given), with 0.961; and `Cc1cc(C)cc(-n2nc(CC(C)C)c3c2C(=O)NC3c2ccccc2)c1` (stereo not given), with 0.992.
With `COCOc1cc(C)cc(OCOC)c1C(=O)c1c(C)c(OC)cc(-c2cc(OC)c(C)c(C(=O)c3c(OCOC)cc(C)cc3OCOC)c2OCOC)c1OCOC`, the growth came to 1.11.
Then `COC(=O)C1=C(C)N(Cc2ccc(C(F)(F)F)cc2)C(=S)NC1c1cccc(Cl)c1` (stereo not given), with 0.826.
For `Cc1cc(O)c2c3c4c(cc(O)c13)O[C@]1(CCCO1)[C@H](/C=C/CCOC(=O)c1ccccc1)[C@H]4OC2=O`, the growth worked out at 0.972.
To `Cc1ccccc1C1CC(c2ccccc2)=CC1=O` (stereo not given) belongs 1.02; to `COC(=O)C1=C(C)N(CCc2cccs2)C(NCC2CCCCC2)=NC1c1ccc(C)cc1` (stereo not given), 0.94.
To `COc1ccc(-c2cc(N)n(C)n2)cc1` belongs 1.22; to `Cc1ccc2c(=O)c3c(O)ccc(CC(=O)O)c3oc2c1C`, 1.03; to `COc1cc(OC)c2c(=O)c3c(CC=C(C)C)ccc(OCC(N)=O)c3oc2c1`, 0.959.
To `COc1ccc(C2=C(C(=O)NCCCOC(C)C)C3C(N2)C(=O)C[C@@H](c2ccccc2)[C@@H]3C)cc1` (stereo not given in full) belongs 0.92; to `COC(=O)C1=C(C)N(CCCOC(C)C)C(NCCc2cccs2)=NC1c1ccccc1` (stereo not given), 1.07; to `COC(=O)[C@@]1([C@H]2CCC(=O)O2)CC(=O)c2c(O)cc(C)c(-c3c(C)cc(O)c4c3O[C@](C(=O)OC)([C@H]3CCC(=O)O3)CC4=O)c2O1`, 1.5.
With `COC(=O)C1=C(C)N(Cc2ccccc2)C(=O)N[C@H]1c1ccc(Br)cc1`, the growth turned out to be 0.989.
To `COc1c(-c2c(OC)c(OC)c3cc4oc(C)cc(=O)c4c(OC)c3c2O)c(O)c2c(OC)c3c(=O)cc(C)oc3cc2c1OC` belongs 1.02; to `C[C@@H]1/C=C/CC(=O)OCCC(Oc2ccccc2)C(=O)N[C@@H](Cc2ccc(O)cc2)C(=O)N[C@@H]1/C=C/c1ccccc1` (stereo not given in full), 1.1.
Then `CC(C)C1=NCCNC2=C1C(c1ccc3c(c1)OCO3)N(Cc1ccccc1)C2=O` (stereo not given), with 0.911.
To `C#CCOC[C@@H](NC(=O)CC1(CNC(=O)c2cccc(/C=N/NS(=O)(=O)c3ccc(C)cc3)c2)CCCCC1)c1ccccc1` belongs 1.1.
In the case of `COC(=O)[C@]12Oc3cccc(O)c3C(=O)C1=C(O)CC[C@@H]2O`, the growth was 1.39.
`CC1=NCCN(C)C2=C1C(c1ccc3c(c1)OCO3)N(Cc1ccccc1)C2=O` (stereo not given): the growth worked out at 0.924.
For `COC(=O)C/C=C/[C@H](C)[C@@H](NC(=O)[C@@H](Cc1ccccc1)NC(=O)OC(C)(C)C)C1CC1`, the growth amounted to 1.08.
For the molecule `CC(C)CCc1cc(O)cc2oc3ccccc3c(=O)c12`, the growth came out at 1.
As for `COC(=O)c1cc(-c2ccccc2)c(C(=O)OC)nn1`, the growth was determined as 1.07.
On to `Cc1cc2c(-c3ccccc3)c(-c3ccccc3)nc3c2n1CCCC3`, for which the growth came to 1.09.
With `CC(=O)C1=C(C)N(Cc2ccc(C(F)(F)F)cc2)C(=S)NC1c1cccc(Cl)c1` (stereo not given), the growth turned out to be 0.919.
